Laboratory results from patent US20250262316A1, “ANTIBODY-DRUG CONJUGATE AND APPLICATION THEREOF” (Bio-Thera Solutions, Ltd., priority 2021, published 2025).

Target: T1, hB7-H3-His (Homo sapiens, UniProt Q5ZPR3)
T1 construct: 10xHis (C); made in house; host or cells: HEK293F (transient transfection)
T1 sequence (Q5ZPR3 with tags, fused parts or gaps): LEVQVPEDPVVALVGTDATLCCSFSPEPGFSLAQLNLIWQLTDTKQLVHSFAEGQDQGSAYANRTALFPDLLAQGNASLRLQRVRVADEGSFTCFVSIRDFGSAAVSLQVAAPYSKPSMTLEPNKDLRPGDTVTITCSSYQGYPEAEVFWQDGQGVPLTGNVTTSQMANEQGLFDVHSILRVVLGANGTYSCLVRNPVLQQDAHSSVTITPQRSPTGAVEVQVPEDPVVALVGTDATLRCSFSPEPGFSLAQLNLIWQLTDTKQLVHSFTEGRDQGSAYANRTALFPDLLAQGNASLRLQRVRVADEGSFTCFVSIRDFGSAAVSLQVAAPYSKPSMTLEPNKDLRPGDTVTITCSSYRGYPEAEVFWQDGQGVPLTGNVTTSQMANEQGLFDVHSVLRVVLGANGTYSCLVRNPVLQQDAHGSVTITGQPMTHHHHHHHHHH
Assay: BiaCore T200 affinity of chimeric antibodies for hB7-H3-His
Conditions: binding to hB7-H3-His, 1:1 kinetic model
Text: Preparation of antigen hB7-H3-His: the gene sequence encoding the antigen hB7-H3-His (the amino acid sequence of the antigen hB7-H3-His is set forth in SEQ ID NO: 4 and is constructed by adding 10×HIS tag ([…], set forth in SEQ ID NO: 5) to the C-terminus of the human B7-H3 extracellular domain (set forth in SEQ ID NO: 2)) was cloned into an expression vector, which was then transiently transfected into HEK293F cells, and the antigen hB7-H3-His was obtained after purification with a nickel column,
Experiment results were analyzed using data analysis software Evaluation Software 3.1. The sensing signals acquired from the experiment flow channels for the samples were subjected to double subtraction (minus values of reference flow channels and blank control), and the fitting was performed using a “1:1” kinetic model to obtain the kinetic parameters (ka: association rate; kd: dissociation rate; kD: equilibrium dissociation constant) for the binding of each sample to hB7-H3-His.

B1: M30-H1-L4: Control antibody; heavy chain SEQ ID NO: 30, light chain SEQ ID NO: 31 (antibody)
heavy: QVQLVQSGAEVKKPGSSVKVSCKASGYTFTNYVMHWVRQAPGQGLEWMGYINPYNDDVKYNEKFKGRVTITADESTSTAYMELSSLRSEDTAVYYCARWGYYGSPLYYFDYWGQGTLVTVSSASTKGPSVFPLAPSSKSTSGGTAALGCLVKDYFPEPVTVSWNSGALTSGVHTFPAVLQSSGLYSLSSVVTVPSSSLGTQTYICNVNHKPSNTKVDKRV[letters of human IgG1 Fc omitted]
light: EIVLTQSPATLSLSPGERATLSCRASSRLIYMHWYQQKPGQAPRPLIYATSNLASGIPARFSGSGSGTDFTLTISSLEPEDFAVYYCQQWNSNPPTFGQGTKVEIKRTVAAPSVFIFPPSDEQLKSGTASVVCLLNNFYPREAKVQWKVDNALQSGNSQESVTEQDSKDSTYSLSSTLTLSKADYEKHKVYACEVTHQGLSSPVTKSFNRGEC
ka (association rate): 243700 M⁻¹ s⁻¹
kd (dissociation rate): 0.0002403 s⁻¹
